In US9931327B2, “Derivatives of 1-phenyl-2-pyridinyl alkyl alcohols as phosphodiesterase inhibitors” (Chiesi Farmaceutici S.p.A., priority 2011, dated 2018):
Some of these results come from one statement about several compounds together. For at least one compound, name, drawing or mass did not settle the structure. Some compounds share one range, which may span the group rather than tell each member.

Each compound was assayed on LPS-induced TNF-α release in peripheral blood mononuclear cells (PBMCs) (assay: In vitro determination of PDE4 inhibitory activity in the PBMCs assay (LPS-induced TNF-α release)). Conditions: human PBMCs, LPS 3 ng/ml, 18 hours, TNF-α by ELISA; read-out: PDE4 inhibition (IC50, 50% inhibition of LPS-induced TNF-α release).
Format: cell-based
Experimental: The assay, which is based on the known inhibitory activity exerted by PDE4 inhibitors on the lipopolyshaccarides (LPS)-induced tumour necrosis factor-alpha (TNF-α release in peripheral blood mononuclear cells (PBMCs), was performed according to a method previously described (Hatzelmann A et al., J. Pharmacol. Exp. Ther., 2001; 297:267-279; and Draheim R et al., J. Pharmacol. Exp. Ther., 2004; 308:555-563, which are incorporated herein by reference in their entireties). Cryopreserved human PBMCs, (100 l/well) were incubated in 96-well plates (10^5 cells/well), for 30 minutes, in the presence or absence (50 microl) of the test compounds whose concentrations ranged from 10^−12 M to 10^−6 M or from […] to 10^−7 M. Subsequently, LPS (3 ng/ml) was added.
After 18 hours of incubation at 37° C. in a humidified incubator under an atmosphere of 95% air and 5% CO2, culture medium was collected and TNF-α measured by ELISA. The results of the tested compounds, representatives of the invention, expressed as mean±95% confidence limits of the molar concentration of the test compound producing 50% inhibition of LPS-induced TNF-α release (IC50) are shown in the following Table: […]

NCc1ccnc(C(=O)N2CCS[C@H]2C(=O)O[C@@H](Cc2c(Cl)c[n+]([O-])cc2Cl)c2ccc(OC(F)F)c(OCC3CC3)c2)c1 (single isomer, unassigned) [Compound 20, 4-((S)-2-((S)-3-(4-(aminomethyl)picolinoyl)thiazolidine-2-carbonyloxy)-2-(3-(cyclopropylmethoxy)-4-(difluoromethoxy)phenyl)ethyl)-3,5-dichloropyridine 1-oxide or 4-((S)-2-((R)-3-(4-(aminomethyl)picolinoyl)thiazolidine-2-carbonyloxy)-2-(3-(cyclopropylmethoxy)-4-(difluoromethoxy)phenyl)ethyl)-3,5-dichloropyridine 1-oxide] and CN(C)C(=O)c1ccc(CN2CCS[C@H]2C(=O)O[C@@H](Cc2c(Cl)c[n+]([O-])cc2Cl)c2ccc(OC(F)F)c(OCC3CC3)c2)cc1 (single isomer, unassigned) [Compound 16, 3,5-dichloro-4-((S)-2-(3-(cyclopropylmethoxy)-4-(difluoromethoxy)phenyl)-2-((S)-3-(4-(dimethylcarbamoyl)benzyl)thiazolidine-2-carbonyloxy)ethyl)pyridine 1-oxide or 3,5-dichloro-4-((S)-2-(3-(cyclopropylmethoxy)-4-(difluoromethoxy)phenyl)-2-((R)-3-(4-(dimethylcarbamoyl)benzyl)thiazolidine-2-carbonyloxy)ethyl)pyridine 1-oxide] fall in the same range of IC50: 0.1 to 1 nM for the first, 0.1 to 1 nM for the second.

NS(=O)(=O)c1cccc(S(=O)(=O)N2CCO[C@@H](C(=O)O[C@@H](Cc3c(Cl)c[n+]([O-])cc3Cl)c3ccc(OC(F)F)c(OCC4CC4)c3)C2)c1 (single isomer, unassigned) [Compound 77, 3,5-dichloro-4-((S)-2-(3-(cyclopropylmethoxy)-4-(difluoromethoxy)phenyl)-2-((R)-4-(3-sulfamoylphenylsulfonyl)morpholine-2-carbonyloxy)ethyl)pyridine 1-oxide or 3,5-dichloro-4-((S)-2-(3-(cyclopropylmethoxy)-4-(difluoromethoxy)phenyl)-2-((S)-4-(3-sulfamoylphenylsulfonyl)morpholine-2-carbonyloxy)ethyl)pyridine 1-oxide] showed an IC50 of 0.1 to 1 nM.

Each compound was assayed on T1, PDE4 (assay: In vitro determination of PDE4 inhibitory activity in the cell free assay (cAMP disappearance, U937 cell lysate supernatant)). Conditions: cell free assay, U937 human monocytic cell lysate supernatant; compounds of the invention; read-out: PDE4 inhibition (IC50, 50% inhibition of cAMP disappearance).
T1 construct: PDE4 activity was determined in U937 human monocytic supernatants cells lysate
Format: biochemical, human

O=C(O[C@@H](Cc1c(Cl)c[n+]([O-])cc1Cl)c1ccc(OC(F)F)c(OCC2CC2)c1)[C@@H]1SCCN1S(=O)(=O)c1ccc2[nH]c(=O)oc2c1 [Compound 218, 3,5-dichloro-4-((S)-2-(3-(cyclopropylmethoxy)-4-(difluoromethoxy)phenyl)-2-((S)-3-(2-oxo-2,3-dihydrobenzo[d]oxazol-6-ylsulfonyl)thiazolidine-2-carbonyloxy)ethyl)pyridine 1-oxide] and Nc1ccc(S(=O)(=O)N2CCS[C@@H]2C(=O)O[C@@H](Cc2c(Cl)c[n+]([O-])cc2Cl)c2ccc(OC(F)F)c(OCC3CC3)c2)cc1 [Compound 151, 4-((S)-2-((R)-3-(4-aminophenylsulfonyl)thiazolidine-2-carbonyloxy)-2-(3-(cyclopropylmethoxy)-4-(difluoromethoxy)phenyl)ethyl)-3,5-dichloropyridine 1-oxide] cannot be ordered by IC50: less than 0.1 nM for the first, less than 0.1 nM for the second.

First: CN(C)C(=O)c1cccc(C(=O)N2CCSC2CC(=O)O[C@@H](Cc2c(Cl)c[n+]([O-])cc2Cl)c2ccc(OC(F)F)c(OCC3CC3)c2)c1 (stereo partly drawn) [Compound 275, 3,5-dichloro-4-((2S)-2-(3-(cyclopropylmethoxy)-4-(difluoromethoxy)phenyl)-2-(2-(3-(3-(dimethylcarbamoyl)benzoyl)thiazolidin-2-yl)acetoxy)ethyl)pyridine 1-oxide]
Second: CN(C)C(=O)c1cccc(CC(=O)N2CCC[C@H]2C(=O)O[C@@H](Cc2c(Cl)c[n+]([O-])cc2Cl)c2ccc(OC(F)F)c(OCC3CC3)c2)c1 [Compound 199, 3,5-dichloro-4-((S)-2-(3-(cyclopropylmethoxy)-4-(difluoromethoxy)phenyl)-2-((S)-1-(2-(3-(dimethylcarbamoyl)phenyl)acetyl)pyrrolidine-2-carbonyloxy)ethyl)pyridine 1-oxide]
The IC50 of the first is lower: less than 0.1 nM for the first, 0.1 to 1 nM for the second. The first is the more potent here.

Same assay, conditions: read-out: PDE4 inhibition (IC50, 50% inhibition of cAMP disappearance)

CN(C)C(=O)c1ccc(CN2CCS[C@H]2C(=O)O[C@@H](Cc2c(Cl)c[n+]([O-])cc2Cl)c2ccc(OC(F)F)c(OCC3CC3)c2)cc1 (single isomer, unassigned) [Compound 17, 3,5-dichloro-4-((S)-2-(3-(cyclopropylmethoxy)-4-(difluoromethoxy)phenyl)-2-((S)-3-(4-(dimethylcarbamoyl)benzyl)thiazolidine-2-carbonyloxy)ethyl)pyridine 1-oxide or 3,5-dichloro-4-((S)-2-(3-(cyclopropylmethoxy)-4-(difluoromethoxy)phenyl)-2-((R)-3-(4-(dimethylcarbamoyl)benzyl)thiazolidine-2-carbonyloxy)ethyl)pyridine 1-oxide] and NS(=O)(=O)c1cccc(S(=O)(=O)N2CCO[C@@H](C(=O)O[C@@H](Cc3c(Cl)c[n+]([O-])cc3Cl)c3ccc(OC(F)F)c(OCC4CC4)c3)C2)c1 (single isomer, unassigned) [Compound 77, 3,5-dichloro-4-((S)-2-(3-(cyclopropylmethoxy)-4-(difluoromethoxy)phenyl)-2-((R)-4-(3-sulfamoylphenylsulfonyl)morpholine-2-carbonyloxy)ethyl)pyridine 1-oxide or 3,5-dichloro-4-((S)-2-(3-(cyclopropylmethoxy)-4-(difluoromethoxy)phenyl)-2-((S)-4-(3-sulfamoylphenylsulfonyl)morpholine-2-carbonyloxy)ethyl)pyridine 1-oxide] cannot be ordered by IC50: less than 0.1 nM for the first, less than 0.1 nM for the second.

CN(C)C(=O)c1cccc(S(=O)(=O)N2CCS[C@H]2C(=O)O[C@@H](Cc2c(Cl)c[n+]([O-])cc2Cl)c2ccc3c(c2)OC(F)(F)O3)c1 (single isomer, unassigned) [Compound 303] and CN(C)C(=O)c1cccc(S(=O)(=O)N2CCC[C@H]2C(=O)O[C@@H](Cc2c(Cl)c[n+]([O-])cc2Cl)c2ccc3c(c2)OC(F)(F)O3)c1 (single isomer, unassigned) [Compound 315] fall in the same range of IC50: 1 to 10 nM for the first, 1 to 10 nM for the second.
